Sequences with one replicate were seen in a single cluster, so their values are uncertain.
Test system: ATP
Assay: switch fluorescence ratio, 500 uM ATP over buffer (Cy3 cluster intensity, sum of 5 cycles each) (fold (ratio)); higher = stronger signal-on switching upon ATP binding; sequences stand for … in TCGTCGGCAGCGTCAGATGTGTATAAGAGACAGTTTTTTTTTTTTTTTTTTTTTTTTT…TC
Conditions: aptamer strand: ATP DNA aptamer (quencher-CACCTGGGGGAGTATTGCGGAGGAAGG + anchor), 100 nM annealed; ATP concentration: 500 uM; one replicate
How it was run: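 Cy3-labelled switching-strand clusters on a modified Illumina MiSeq flow-cell were annealed to 100 nM quencher-labelled ATP aptamer, imaged in selection buffer, then imaged after 15 min with 500 uM ATP at 22 °C. Five buffer/ATP cycles ran, with NaOH stripping and re-annealing between them. The fluorescence ratio is summed target-cycle over summed buffer-cycle Cy3 intensity per cluster, averaged per switch-domain sequence. Clusters outside 100-1000 RFU were excluded.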
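Further: ATP exposure 15 min at 22 °C before imaging.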

Sequence	switch fluorescence ratio
TGCCTGGGGT	1.04
TTCTGTCAGT	1.01
TGTAACAACT	0.964
TGGCTAAAAG	1.01
CCCCAATAT	4
TGCGGTATCT	0.98
CGAACCTCGT	1.06
TCAACCTGAG	1.81
GACTTGTGTG	0.967
TGGTTCAGCG	0.944
TTAGACAGTA	1.03
TGGTTTATCC	1.04
CATATATCAG	0.984
CACATGCGCG	0.955
TCTTTATCGG	0.985
GATCAAATAG	1.06
TACCTCTATA	1.09
CCTTTGTAGC	1.79
TACACGCCAG	1.08
AGTTTCAAAG	1.03
GTACCCCGGC	1.05
AAACCAACGG	1.08
AATCCATGCT	1.01
CACTTGGCGA	1.01
ATCTCGGCGA	1.25

Sequence	switch fluorescence ratio
TCGGCAACGT	1.01
CGCGCTCAGG	1.27
AGACGCACCT	1.78
AAATGTATAG	1.05
CAATGAGGGT	1.05
AGGGGTGGTG	0.963
ATGAGATAGC	1.04
CTGGACATAG	1.03
CTCTGTGTCA	1.01
TGAGAGATAT	0.982
AGTCCTACAT	1.01
ATTACTGATT	0.992
TCCGTAAACC	2.92
TACATCTAG	0.967
CGCCGTCCTT	0.959
AGGGTGAAGA	0.973
TTTACGTTAG	1.06
TATGTCAAT	0.982
GCCGGGGAAT	0.98
GATTCAATTC	1.16
TCGTAGGAGA	0.991
GGTAATTAGG	1.01
CGTGTCTTA	1.04
CCTGGATTTG	1.04
TATGAAGCAT	1.35

Sequence	switch fluorescence ratio
TCGGTACTGT	1.04
TCCGTCGCCT	0.945
AATGAATGG	0.977
ATTGATTGG	0.981
TTCGAGGTCG	1.04
GGTAGTATGT	0.981
CCGGTGGCCT	0.987
ATATTAAAGG	0.953
CGCTAATAGT	1.99
CACATAACGC	1.11
TACTTTCGCT	0.994
AGACTTGGC	1.08
AATAACAGC	0.999
TAATATTAAA	0.985
GAAACGTGGA	1.09
GTTTAACATG	0.968
AGGTGTGACT	0.995
GCTACGGT	1.01
TGTCCATGAG	1.01
AATTCCGAAA	1.35
TAGTTTAGTA	0.971
CGATCACTCA	0.996
CGTATTCAAA	1
GTCCTTGAGT	0.985
GTACCTGTGC	1.06

Sequence	switch fluorescence ratio
CGTAGAACAT	0.966
TAACTCTGTA	1.05
ACGTTTGGTT	0.964
AAACTTTGGA	1
GAAGGATGCG	1.02
TGAATTCA	0.969
TGTGGCGATA	0.994
GAGGAGTGGC	1.08
AGCTGCGTAT	0.991
TAGAACGAT	0.994
GCCCAATGAG	1.01
CGCGATAAAC	1.8
CGAATTGTAA	1
GAATTGCGTA	0.996
CGTTGATTG	0.956
ATCCAGAACT	1
ACGCGTGACG	1.06
TAGAGATAGG	0.926
GACGCCCGAA	1.06
TAAAACGTGG	0.984
GGGACTAAAC	1.44
CGGGGCCTCG	0.993
TTCCGGCCCC	1.46
AAGTATAGGG	1.1
AACCTGAGGT	0.951

Source: the supplement of paper PMC10126150
